The campaign covered roughly 400,000 compounds. About 2,200 (0.55%) were called active. Another 1% or so got no clear call; they are omitted. Calls come from the whole dose curve; as a rule, active = well fitted inhibition curve with a large enough effect; inconclusive = small, poorly fitted or top-dose-only effect, or another doubt; inactive = no such curve, though single readings can be large or run the other way. The list shows a part of the results, in another mix than the full data. Where a structure was tested more than once in an assay, its records may differ in their call.
The compounds below were run against DNA polymerase kappa (Homo sapiens) (UniProt Q9UBT6) (assay: qHTS for Inhibitors of Polymerase Kappa). Conditions: purified Pol kappa, fluorescent DNA synthesis assay, 10 min; activity, negative = inhibition: at the top concentration.
Sequence of UniProt Q9UBT6 (Q9UBT6 whole entry, looked up): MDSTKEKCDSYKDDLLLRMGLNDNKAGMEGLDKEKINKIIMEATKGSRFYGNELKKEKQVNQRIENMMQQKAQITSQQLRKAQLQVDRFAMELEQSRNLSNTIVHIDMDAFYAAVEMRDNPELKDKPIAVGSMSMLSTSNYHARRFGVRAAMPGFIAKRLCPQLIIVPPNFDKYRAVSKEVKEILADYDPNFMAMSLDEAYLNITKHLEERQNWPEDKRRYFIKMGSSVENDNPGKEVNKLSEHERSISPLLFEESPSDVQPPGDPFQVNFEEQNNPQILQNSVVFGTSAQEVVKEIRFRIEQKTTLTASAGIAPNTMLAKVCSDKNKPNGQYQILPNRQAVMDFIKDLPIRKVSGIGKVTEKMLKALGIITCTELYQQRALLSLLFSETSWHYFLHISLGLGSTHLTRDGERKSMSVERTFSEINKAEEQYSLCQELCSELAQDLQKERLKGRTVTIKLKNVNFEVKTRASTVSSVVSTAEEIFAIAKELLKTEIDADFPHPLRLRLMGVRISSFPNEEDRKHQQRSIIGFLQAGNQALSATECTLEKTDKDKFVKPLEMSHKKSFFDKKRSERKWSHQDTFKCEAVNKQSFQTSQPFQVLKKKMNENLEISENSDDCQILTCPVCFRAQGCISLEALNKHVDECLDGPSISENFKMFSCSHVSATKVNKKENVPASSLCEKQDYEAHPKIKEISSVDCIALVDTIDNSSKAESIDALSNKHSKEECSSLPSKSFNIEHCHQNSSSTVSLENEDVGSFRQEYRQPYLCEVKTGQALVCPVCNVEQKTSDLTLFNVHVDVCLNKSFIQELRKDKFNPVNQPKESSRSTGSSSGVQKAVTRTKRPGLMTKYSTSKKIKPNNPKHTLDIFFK
How it was run: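 Kinetic fluorescence screen: compound preincubated 15 min RT with 10 nM enzyme; 50 nM substrate (final) initiates; reads at 0/10 min.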
% is set by controls: 0 for no effect and ±100 for the full control effect; potency is the fitted concentration of half-maximal effect.

SMILES	Potency	activity, negative = inhibition
CCC1C(C)=NN=C(c2ccc(OC)c(OC)c2)c2cc(OC)c(OC)cc21 (stereo not drawn)	inactive	–
Nc1nc(N)c2nc(CNc3ccc(C(=O)NC(CCC(=O)O)C(=O)O)cc3)cnc2n1 (stereo not drawn)	–	inactive: -2.61%
CNC(C)Cc1ccc(OC)cc1 (stereo not drawn)	–	inactive: 17.5%
N#Cc1c(/N=C/c2c(O)n(Cc3ccco3)c(=O)[nH]c2=O)sc2c1CCCC2	active: 22.4 µM	–
CCN(CC)C(=O)N[C@@H]1C[C@@H]2c3cccc4[nH]cc(c34)C[C@H]2N(C)C1	–	inactive: -4.45% [at 19.4 µM]
c1cc(Cc2cnc[nH]2)ccn1	–	inactive: 15.4%
CCOC(=O)C1=C(C)c2ccccc2OC1(C(=O)OCC)c1ccccc1 (stereo not drawn)	–	inactive: -14.6% [at 107 µM]
CC(=O)N1CCN(c2ccc(OC[C@H]3CO[C@](Cn4ccnc4)(c4ccc(Cl)cc4Cl)O3)cc2)CC1	inactive	–
C=CCN(C1=NCCN1)c1c(Cl)cccc1Cl	inactive	–
CC(C)C[C@H]1C(=O)N2CCC[C@@H]2[C@@]2(O)O[C@](NC(=O)[C@@H]3C=C4c5cccc6[nH]cc(c56)C[C@@H]4N(C)C3)(C(C)C)C(=O)N12	–	inactive: -18.3% [at 12 µM]
C[C@H](CCC(=O)O)[C@H]1CC[C@H]2[C@H]3C(CC[C@]12C)[C@@]1(C)CC[C@@H](O)C[C@H]1C[C@H]3O (stereo partly drawn)	inactive	–
NNc1ccccc1	inactive	–
O=C(O)c1cc(Oc2ccc(C(F)(F)F)cc2Cl)ccc1[N+](=O)[O-]	–	inactive: 9.31% [at 107 µM]
CC(CO)NC(=O)C1C=C2c3cccc4[nH]cc(c34)C[C@H]2N(C)C1 (stereo partly drawn)	–	inactive: -1.37%
CC(=O)N1CCN(c2ccc(OCC3CO[C@@](Cn4ccnc4)(c4ccc(Cl)cc4Cl)O3)cc2)CC1 (stereo partly drawn)	–	inactive: -4.06%
O=c1ccc2c(O)c3ccoc3cc2o1	–	inactive: -0.475% [at 107 µM]
CC(C)C[C@H](NC(=O)[C@@H](N)Cc1ccccc1)C(=O)N[C@@H](Cc1ccccc1)C(=O)N[C@@H](CCC(N)=O)C(=O)N1CCC[C@H]1C(=O)N[C@@H](CCC(N)=O)C(=O)N[C@@H](CCCN=C(N)N)C(=O)N[C@@H](Cc1ccccc1)C(N)=O	–	inactive: 15.7%
C[C@H](CCC(=O)O)[C@H]1CC[C@@H]2[C@H]3[C@@H](CC[C@@]21C)[C@]1(C)CC[C@H](O)C[C@@H]1C[C@@H]3O	–	inactive: -5.62% [at 12 µM]
CC[C@H](C)[C@H](NC(=O)[C@H](CCCN=C(N)N)NC(=O)[C@H](CCCN=C(N)N)NC(=O)[C@H](CC(C)C)NC(=O)[C@H](Cc1ccccc1)NC(=O)CNC(=O)CNC(=O)[C@@H](N)Cc1ccc(O)cc1)C(=O)N[C@@H](CCCN=C(N)N)C(=O)N1CCC[C@H]1C(=O)N[C@@H](CCCCN)C(=O)N[C@@H](CC(C)C)C(=O)N[C@@H](CCCCN)C(=O)O	inactive	–
C/C=C1\C[C@H](C)[C@@](O)(CO)C(=O)OCC2=CCN3CC[C@@H](OC1=O)[C@@H]23	–	inactive: 1.66% [at 12 µM]
O=[N+]([O-])c1cc([As](=O)(O)O)ccc1O	inactive	–

SMILES	Potency	activity, negative = inhibition
CCN1C[C@@]2(OC(=O)c3ccccc3NC(C)=O)CCC(OC)[C@@]34C5CC6C(OC)C[C@@](O)(C(CC23)[C@@H]14)C5(O)C6OC (stereo partly drawn)	–	inactive: -5.67%
COc1cccc(N2C(=O)NC(=O)/C(=C/c3ccc([N+](=O)[O-])s3)C2=O)c1	active: 31.6 µM	–
c1nc[n]([Sn]([CH]2CCCCC2)([CH]2CCCCC2)[CH]2CCCCC2)n1	–	inactive: 13.4%
C[C@H](CCC(=O)O)[C@H]1CC[C@H]2[C@@H]3[C@H](O)C[C@@H]4C[C@H](O)CC[C@]4(C)[C@H]3CC[C@]12C	–	inactive: 7.87% [at 107 µM]
O=C(CO)[C@@H](O)C(O)[C@@H](O)CO (stereo partly drawn)	–	inactive: 14.3%
CN1C(=O)NC(=O)/C(=C/c2ccc([N+](=O)[O-])o2)C1=O	active: 22.4 µM	–
C[C@]12CC[C@@H]3c4ccc(OC(=O)N(CCCl)CCCl)cc4CC[C@H]3[C@@H]1CC[C@@H]2O	active: 8.91 µM	–
CCCN1CCc2cccc3c2[C@H]1Cc1ccc(O)c(O)c1-3	–	inactive: 1.61% [at 107 µM]
O=C1NC(=S)N(c2ccccc2)C(=O)/C1=C/c1ccco1	active: 2.51 µM	–
COc1ccc2c3c([nH]c2c1)C(C)=NCC3	inactive	–
CC(C)(C)NCC(O)c1cc(Cl)c(N)c(Cl)c1 (stereo not drawn)	inactive	–
Fc1ccc(C(OCCN2CCN(CCCc3ccccc3)CC2)c2ccc(F)cc2)cc1	inactive	–
CCCC[C@H]1C(=O)O[C@H](C)[C@H](NC(=O)c2cccc(NC=O)c2OC)C(=O)O[C@@H](C)[C@@H]1OC(=O)CC(C)C	inactive	–
CC(C)C[C@H]1C(=O)N2CCCC2[C@]2(O)O[C@](NC(=O)[C@@H]3C=C4c5cccc6[nH]c(Br)c(c56)C[C@H]4N(C)C3)(C(C)C)C(=O)N12 (stereo partly drawn)	–	inactive: -6.77% [at 19.4 µM]
CC(COc1ccccc1)N(CCCl)Cc1ccccc1 (stereo not drawn)	inactive	–
N#CC1=C(N)Oc2c(c(=O)oc3ccccc23)C1c1ccc([N+](=O)[O-])o1 (stereo not drawn)	active: 50.1 µM	–
CNCCc1c[nH]c2ccc(O)cc12	inactive	–
CN1/C(=C\C=C2C(=O)NC(=S)NC2=O)C(C)(C)c2ccccc21	–	inactive: 52% [at 107 µM]
CC1(C)C(C=C(Cl)Cl)C1C(=O)OC(C#N)c1cccc(Oc2ccccc2)c1 (stereo not drawn)	–	inactive: 1.43% [at 19.4 µM]
COc1ccc(OC)c(N2C(=O)/C(=C/c3ccco3)C(=O)NC2=S)c1	active: 3.55 µM	–
C[C@]12N[C@H](Cc3ccccc31)c1ccccc12	inactive	–

SMILES	Potency	activity, negative = inhibition
C/C=C1/C[C@@H](C)[C@](O)(CO)C(=O)OCC2=CCN3CC[C@@H](OC1=O)C23 (stereo partly drawn)	inactive	–
CN(N=O)c1cc(O)ccc1O	–	inactive: -2.39% [at 107 µM]
Oc1ccc2c3c1OC1c4oc5ccccc5c4C[C@@]4(O)[C@@H](C2)N(CC2CC2)CC[C@]314 (stereo partly drawn)	–	inactive: -6.9% [at 107 µM]
O=C(O)CC1OCC=C2CN3CCC45C6=CC(=O)C(=O)C([N+](=O)[O-])=C6NC4C1C2CC35 (stereo not drawn)	active: 39.8 µM	–
COP(=S)(OC)Oc1ccc([N+](=O)[O-])c(C)c1	–	inactive: 13.8%
CC(C)C1C(=O)N2CCC[C@H]2[C@]2(O)O[C@](NC(=O)[C@@H]3C=C4c5cccc6[nH]cc(c56)C[C@H]4N(C)C3)(C(C)C)C(=O)N12 (stereo partly drawn)	–	inactive: -8.56% [at 19.4 µM]
CCCC[C@@H](C)[C@@H](OC(=O)C[C@@H](CC(=O)O)C(=O)O)[C@H](C[C@@H](C)C[C@H](O)CCCC[C@@H](O)C[C@H](O)[C@H](C)N)OC(=O)C[C@H](CC(=O)O)C(=O)O	–	inactive: 5.05% [at 19.4 µM]
C[C@]12C=CC(=O)C=C1CC[C@@H]1C2=CC[C@]2(C)[C@@H](C(=O)CN3CCN(c4cc(N5CCCC5)nc(N5CCCC5)n4)CC3)CC[C@@H]12	–	inactive: -16.6% [at 107 µM]
CN1[C@@H]2CC[C@H]1CC(OC1c3ccccc3CCc3ccccc31)C2 (stereo partly drawn)	inactive	–
Cc1cc(C=C2C(=O)NC(=S)NC2=O)c(C)n1-c1ccc2c(c1)OCO2	active: 79.4 µM	–
OCC(Br)(Br)Br	–	inactive: 21.1%
C=C1C(=O)O[C@@H]2C[C@@H](C)[C@@H]3C=CC(=O)[C@@]3(C)[C@@H](OC(=O)CC(=O)O[C@H]3[C@@H]4C(=C)C(=O)O[C@@H]4C[C@@H](C)[C@@H]4C=CC(=O)[C@]43C)[C@H]12	active: 35.5 µM	–
CC(C)=CCCC1(C)C=Cc2c(O)c3c(c(CC=C(C)C)c2O1)OC12C(=CC4CC1C(C)(C)OC2(C/C=C(/C)C(=O)O)C4O)C3=O (stereo not drawn)	active: 25.1 µM	–
O=C1NC(=S)NC(=O)C1=Cc1cccn1-c1ccc(O)cc1	active: 17.8 µM	–
C[C@H](N)C(=O)NCC(=O)N[C@H]1CSSC[C@@H](C(=O)O)NC(=O)[C@H](CO)NC(=O)[C@H]([C@@H](C)O)NC(=O)[C@H](Cc2ccccc2)NC(=O)[C@H]([C@@H](C)O)NC(=O)[C@H](CCCCN)NC(=O)[C@H](Cc2c[nH]c3ccccc23)NC(=O)[C@H](Cc2ccccc2)NC(=O)[C@H](Cc2ccccc2)NC(=O)[C@H](CC(N)=O)NC(=O)[C@H](CCCCN)NC1=O	–	inactive: 5.21%
C[C@@]12N[C@@H](Cc3ccccc31)c1ccccc12	inactive	–
COc1ccc(OC)c(N2C(=O)NC(=O)/C(=C\c3ccc([N+](=O)[O-])s3)C2=O)c1	active: 35.5 µM	–
Oc1c(Cl)c(Cl)c(Cl)c(Cl)c1Cl	–	inactive: 0% [at 107 µM]
CN(C)C1C(=O)C(C(N)=O)=C(O)C2(O)C(=O)C3=C(O)c4c(O)cccc4C(C)(O)C3C(O)C12 (stereo not drawn)	–	inactive: -3.64% [at 107 µM]
CC[C@@]1(O)C(=O)OCc2c1cc1n(c2=O)Cc2cc3cc(O)ccc3nc2-1	–	inactive: -11.4%
CCCCOC(=O)N(C)SN(C)C(=O)Oc1cccc2c1OC(C)(C)C2	–	inactive: 13.6%

SMILES	Potency	activity, negative = inhibition
CN=C(NC#N)NCCSCc1nc[nH]c1C	active: 28.2 µM	–
Oc1ccc2c3c1O[C@H]1[C@@H](O)CC[C@]4(O)[C@H](C2)N(CC2CCC2)CC[C@@]314	–	inactive: -4.46% [at 12 µM]
CNCC(=O)c1ccccc1	–	inactive: 23.7% [at 107 µM]
Cc1ccc(N2C(=O)NC(=O)/C(=C/c3ccoc3)C2=O)cc1	active: 22.4 µM	–
C=C(C)[C@@H]1CC[C@]2(C(=O)O)CC[C@]3(C)[C@H](CC[C@@H]4[C@@]5(C)CC[C@H](O)C(C)(C)[C@@H]5CC[C@]43C)[C@@H]12	–	inactive: 10.6% [at 107 µM]
Nc1ccc(N)cc1	–	inactive: -5.82%
O=C(O)c1cccc2c1NC(C(=O)O)C1CC(Sc3ccccc3[N+](=O)[O-])C(Cl)C21 (stereo not drawn)	active: 8.91 µM	–
Cc1cccc(NC(=O)C2CCCN(S(=O)(=O)c3ccc4c(c3)oc(=O)n4C)C2)c1 (stereo not drawn)	–	inactive: -12.4%
O=C(Nc1cc(C(F)(F)F)cc(C(F)(F)F)c1)c1cc(Cl)ccc1O	–	inactive: -7.03%
CN(C)C1C(=O)C(C(N)=O)=C(O)[C@@]2(O)C(=O)C3=C(O)c4c(O)cccc4[C@](C)(O)C3C(O)C12 (stereo partly drawn)	active: 2.82 µM	–
C=C1CCC(O)C/C1=C/C=C1\CCC[C@]2(C)[C@@H]([C@H](C)CCCC(C)C)CC[C@@H]12 (stereo partly drawn)	–	inactive: 5.39%
Cc1[nH]ccc2c1[nH]c1cc(=O)ccc12	inactive	–
CSCC[C@H](NC(=O)[C@@H](NC(=O)CNC(=O)[C@H](CC(=O)O)NC(=O)[C@H](CCSC)NC(=O)[C@@H](N)Cc1ccc(O)cc1)[C@@H](C)O)C(=O)N[C@@H](CO)C(=O)N[C@@H](CCC(N)=O)C(=O)N[C@H](C(=O)O)C(C)C	–	inactive: 14%
CCCOC(=O)c1ccccc1	inactive	–
CSC(=S)NCc1c[nH]c2ccccc12	–	inactive: 8.52%
C=C1CC[C@H](O)C/C1=C/C=C1\CCC[C@]2(C)[C@@H]([C@H](C)CCCC(C)C)CC[C@@H]12	–	inactive: -5.32% [at 19.4 µM]
CC12CCC(=O)C=C1CCC1C2CCC2(C)C(O)CCC12 (stereo not drawn)	–	inactive: -6.43% [at 107 µM]
CCCCC/C=C\C/C=C\C/C=C\C/C=C\CCCC(=O)NCCO	–	inactive: 5.3% [at 19.4 µM]
Oc1ccc2c3c1O[C@H]1c4oc5ccccc5c4C[C@@]4(O)[C@@H](C2)N(CC2CC2)CC[C@]314	–	inactive: -18% [at 107 µM]
C=CCN1CC[C@]23c4c5ccc(O)c4OC2C(O)CC[C@@]3(O)[C@H]1C5 (stereo partly drawn)	–	inactive: 14.8% [at 107 µM]

Source: PubChem BioAssay AID588579 (National Center for Advancing Translational Sciences (NCATS), 2011)
